Results taken from the antibiotic and cytotoxicity screens of Wong et al. (2023).
The list shows a part of the results.

Tests used:
HSkMC = human skeletal muscle cells; assay: cytotoxicity call (relative viability < 0.9); details: 10 µM
HepG2 = assay: cytotoxicity call (relative viability < 0.9); details: 10 µM
S. aureus RN4220 = assay: growth inhibition call (relative growth <= 0.2); details: 50 µM

CCc1ccc(CNC2CC2)cc1
cytotoxicity call (HSkMC): inactive
cytotoxicity call (HepG2): inactive
growth inhibition call (S. aureus RN4220): inactive

COc1ccc([Si](C)(C)[C@H]2[C@H](CCO)O[C@@]3(C(=O)N(Cc4ccc(N5C(=O)COc6ccccc65)cc4)c4ccccc43)[C@@H]2C)cc1
cytotoxicity call (HSkMC): inactive
cytotoxicity call (HepG2): active
growth inhibition call (S. aureus RN4220): inactive

COc1ccc2c3c(n(c2c1)C)[C@H](CO)N(C[C@]13CCN(CC1)C(=O)Nc1ccc(cc1)F)C(=O)c1ccc(cc1)F
cytotoxicity call (HSkMC): inactive
cytotoxicity call (HepG2): inactive
growth inhibition call (S. aureus RN4220): inactive

C[C@@H]1CCCCO[C@H](CN(C)CC2CCCCC2)[C@H](C)CN([C@H](C)CO)C(=O)c2cc(NC(=O)c3ccncc3)ccc2O1
cytotoxicity call (HSkMC): inactive
cytotoxicity call (HepG2): inactive
growth inhibition call (S. aureus RN4220): inactive

C[C@H](CO)N1C[C@H](C)[C@H](CN(C)S(=O)(=O)c2ccccc2)OCCCC[C@H](C)Oc2ccc(NC(=O)CCC(F)(F)F)cc2C1=O
cytotoxicity call (HSkMC): inactive
cytotoxicity call (HepG2): inactive
growth inhibition call (S. aureus RN4220): inactive

C[C@@H]1CN([C@@H](C)CO)C(=O)c2cc(NC(=O)Nc3ccccc3)ccc2O[C@@H](C)CCCCO[C@H]1CN(C)S(=O)(=O)c1ccccc1F
cytotoxicity call (HSkMC): inactive
cytotoxicity call (HepG2): inactive
growth inhibition call (S. aureus RN4220): inactive

C[C@@H]1CCCCO[C@H](CN(C)C(=O)CCCN(C)C)[C@H](C)CN([C@H](C)CO)C(=O)c2cc(NS(C)(=O)=O)ccc2O1
cytotoxicity call (HSkMC): inactive
cytotoxicity call (HepG2): inactive
growth inhibition call (S. aureus RN4220): inactive

C[C@@H]1CN([C@H](C)CO)C(=O)c2cc(NC(=O)Nc3ccc(F)cc3)ccc2O[C@@H](C)CCCCO[C@H]1CN(C)Cc1ccc(C(F)(F)F)cc1
cytotoxicity call (HSkMC): active
cytotoxicity call (HepG2): active
growth inhibition call (S. aureus RN4220): inactive

CC(O)(P(=O)([O-])O)P(=O)([O-])O.[Na+].[Na+]
cytotoxicity call (HSkMC): inactive
cytotoxicity call (HepG2): inactive
growth inhibition call (S. aureus RN4220): inactive
